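Cells were grown in 96-well plates and exposed to each compound for 48 hours at five concentrations; endpoints were interpolated linearly between bracketing concentrations, or set to the highest concentration if not reached. GI50 marks 50% less growth. TGI: total growth inhibition.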

The test system of the assay is NCI-H322M lung. As to the kind of experiment: NCI tumour cell line growth inhibition, 48 h.
In turn, `O=C(c1cc(Br)ccc1O)c1cc(Br)ccc1O` gave a TGI of 30.7 µM.
`COc1cc2nc(-c3ccc(-n4cncc4-c4ccc(N)cc4)cc3)sc2c(OC)c1OC`: the GI50 is 2.07 µM and the TGI came to 21.5 µM.
Take `Nc1nc(N)nc(-c2cnccn2)n1`: the TGI is above 100 µM.
`C/C(=N\NS(=O)(=O)c1ccc(C)cc1)C(CN(C)C)C(c1ccccc1)c1c(O)c2ccccc2oc1=O` (stereo not drawn): the TGI was above 100 µM.
For the molecule `CCOC(=O)C1=C(C)N(C)C(=S)NC1c1cccc(O)c1` (stereo not drawn), the TGI is above 100 µM.
Molecule `COc1cccc(/C(C=O)=C(\Cl)c2ccc(OC)c(OC)c2)c1` yielded a TGI of 28.6 µM.
Molecule `Cc1[nH]c(=O)nc(CC(O)(c2ccccc2)c2ccccc2)c1-c1ccccc1` came in with a TGI above 100 µM.
In the case of `BrC(Br)(Br)c1cnc2ccccc2n1`, the GI50 was 5.86 µM and the TGI stood at 19.2 µM.
Take `Oc1ccc(Br)cc1/C=N/NC(=S)NC12CC3CC(CC(C3)C1)C2`: the GI50 was 2.38 µM and the TGI amounted to 7.93 µM.
Take `COc1ccc2c(c1OC)-c1c(c3ccc([N+](=O)[O-])cc3c(=O)n1CCCN=[N+]=[N-])C2=O`: the GI50 is above 100 µM and the TGI is above 100 µM.
The molecule `COc1ccc(/C(Cl)=C(\C=O)c2ccc(Br)cc2)cc1OC` yielded a TGI above 100 µM.
As to `CC1=CCC[C@@](C)(O)[C@@H]2C[C@H]3C(CSc4ccccc4)C(=O)O[C@H]3[C@@H](O2)[C@H](C)CCC1` (stereo partly drawn), the TGI was determined as 41.4 µM.
Consider `COc1cc(OC)c(OC)cc1/C=C1\C=Cc2ccccc21`, for which the TGI is above 100 µM.
The molecule `CC(=N/NC(=S)Nc1c(C)n(C)n(-c2ccccc2)c1=O)/C(C)=N\NC(=S)Nc1c(C)n(C)n(-c2ccccc2)c1=O` had a TGI above 100 µM.
With `CC(=O)OCC(OC(C)=O)C(OC(C)=O)C(OC(C)=O)C(=O)CNn1c(-c2ccccc2)nc2ccc(Br)cc2c1=O` (stereo not drawn), the TGI was above 100 µM.
Same read-out and setting: next, `CCOC(=O)c1nnsc1NC(=O)Nc1ccc(Cl)cc1`: above 100 µM.
For the molecule `COc1ccc(OC)c(-c2cc(-c3ccccc3)nn2-c2ccc(S(N)(=O)=O)cc2)c1`, the GI50 is 10.5 µM and the TGI came to 22.5 µM.
In turn, `CCOc1ccc(N/C(=C(/C(Cl)=C(/Cl)NCCO)[N+](=O)[O-])n2nnc3ccccc32)cc1` came in with a TGI above 100 µM.

The values above are taken from PubChem BioAssay (NCI).
